Test results published in US11643438B2, “Antimicrobial peptides and methods of use” (priority 2018, dated 2023).

Tested on: A. fumigatus, as well as several other Aspergilli
Test: Antifungal MIC80 assay, summary over Aspergilli
Conditions: Aspergillus fumigatus, read-out: minimum MIC80 value

**Q.** For CC[C@H](C)C[C@H](C)C[C@H](C)C[C@@H]1NC(=O)[C@H](C(C)C)N(C)C(=O)[C@@H]([C@H](C)CC)OC(=O)[C@H](C(C)(C)O)N(C)C(=O)[C@H](CC(C)C)NC(=O)[C@H](C(C)C)N(C)C(=O)[C@H]([C@H](C)CC)NC(=O)[C@@H]2CCCN2C(=O)CN(C)C1=O [Compound 1, persephacin] (cyclo(L[NMeVal(β-OH)][X1][NMeV][X2][Sar]P[aIle][NMeV])), which MIC80 is on record?
**A.** 1.25 µM (≈ 1.34 µg/mL)

Values after ≈ are worked out from the molar mass of the structure shown. *1 amine or outer side, *2 acyl side, *3 side chain or, on linkers, in order; H or OH if unused. Where a SMILES comes first, the peptide text is derived from it. [ ]: non-standard residue; d: D form. X2 = CC[C@H](C)C[C@H](C)C[C@H](C)C[C@H](N[*:1])C(=O)[*:2]; X1 = CC[C@@H](C)[C@@H](O[*:1])C(=O)[*:2]; NMeVal(β-OH) = CN[C@H](C(=O)O)C(C)(C)O; aIle = CC[C@@H](C)[C@H](N)C(=O)O; NMeV = CN[C@H](C(=O)O)C(C)C; Sar = CNCC(=O)O
